Results published in article PMC5681660, “Reduced hepatitis B and D viral entry using clinically applied drugs as novel inhibitors of the bile acid transporter NTCP” (Scientific Reports, 2017).
Structures can show the parent of a compound that is named as a salt. Where two headings read alike, the source gives them in different places.

Key:
human NTCP [1] = biological target: T1, human NTCP (Homo sapiens, UniProt Q14973); test: Screening taurocholate uptake assay (96-well, [14C]taurocholate, 10 µM drug); conditions: for remaining activity at 10 µM: 10 min, read-out: %NTCP activity
T1 sequence (Q14973 1-349): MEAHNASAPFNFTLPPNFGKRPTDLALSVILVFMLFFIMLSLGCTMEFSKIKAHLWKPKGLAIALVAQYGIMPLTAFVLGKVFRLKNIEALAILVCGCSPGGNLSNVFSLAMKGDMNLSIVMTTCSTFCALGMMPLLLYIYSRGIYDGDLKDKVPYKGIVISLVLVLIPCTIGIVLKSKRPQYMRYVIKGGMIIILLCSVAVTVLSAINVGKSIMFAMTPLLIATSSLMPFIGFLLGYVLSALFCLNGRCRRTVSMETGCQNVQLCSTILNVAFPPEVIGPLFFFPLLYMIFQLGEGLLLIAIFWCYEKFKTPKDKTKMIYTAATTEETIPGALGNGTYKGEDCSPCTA

human NTCP [2] = biological target: T1, human NTCP; test: Screening fluorescent competitive Myrcludex B-FITC binding assay (96-well, 10 µM drug)
[3] = Prestwick library screen, 10 µM drug, Myrcludex B-FITC binding
[4] = screen, 10 µM drug, [14C]taurocholate uptake
[5] = screen, 10 µM drug, Myrcludex B-FITC binding
[6] = Prestwick library screen, Myrcludex B-FITC binding, 10 µM drug
[7] = 0.5 h, read-out: %NTCP binding, screen, 10 µM drug, Myrcludex B-FITC binding
[8] = 0.5 h, read-out: %NTCP binding, Prestwick library screen, 10 µM drug, Myrcludex B-FITC binding

| SMILES | remaining activity at 10 µM (human NTCP [1]) [%] | remaining activity at 10 µM (human NTCP [2]; 0.5 h, read-out: %NTCP binding) [%] | other results |
| --- | --- | --- | --- |
| CC(Oc1c(Cl)cccc1Cl)C1=NCCN1 (centres unmarked) [Lofexidine] | 76.5 | 81.5 |  |
| CCC1=C(C)CN(C(=O)NCCc2ccc(S(=O)(=O)NC(=O)N[C@H]3CC[C@H](C)CC3)cc2)C1=O [Glimepiride] | 72.2 | 82.3 |  |
| OC(CCCN1CCCCC1)(c1ccccc1)c1ccccc1 [Diphenidol hydrochloride] | 30.5 | 91.5 |  |
| NC(=O)N/N=C/c1ccc([N+](=O)[O-])o1 [Nitrofural] | 54.3 | 77.8 |  |
| CC[C@H]1OC(=O)[C@H](C)[C@@H](O[C@H]2C[C@@](C)(OC)[C@@H](O)[C@H](C)O2)[C@H](C)[C@@H](O[C@@H]2O[C@H](C)C[C@H](N(C)C)[C@H]2O)[C@](C)(O)C[C@@H](C)CN(C)[C@H](C)[C@@H](O)[C@]1(C)O [Azithromycin] | 103 | 106 |  |
| CC(=O)OCC1=C(C(=O)O)N2C(=O)[C@@H](N)[C@H]2SC1 [Cephalosporanic acid, 7-amino] |  |  | %NTCP activity (human NTCP [1]): 42.4571%; %NTCP binding (human NTCP [2]; [3]): 88.3299% |
| Cc1c(OCC(F)(F)F)ccnc1C[S+]([O-])c1nc2ccccc2[nH]1 (centres unmarked) [Lansoprazole] | 63.6 | 92.5 |  |
| CC(=O)Oc1cc(C(F)(F)F)ccc1C(=O)O [Triflusal] | 65.6 | 77.2 |  |
| CC(C)(C(=O)c1cccnc1)c1cccnc1 [Metyrapone] | 61.6 | 127 |  |
| CN(C)CCOC(c1ccc(Cl)cc1)c1ccccn1.O=C(O)/C=C\C(=O)O (centres unmarked) [Carbinoxamine maleate salt] |  |  | %NTCP activity (human NTCP [1]; [4]): 105.296%; %NTCP binding (human NTCP [2]; [5]): 89.9614% |
| S=c1[nH]cnc2nc[nH]c12 [Mercaptopurine] | 124 | 83.9 |  |
| CC(C)/N=c1\cc2n(-c3ccc(Cl)cc3)c3ccccc3nc-2cc1Nc1ccc(Cl)cc1 [Clofazimine] | 69.4 | 42.5 |  |
| C#C[C@]1(O)CC[C@H]2[C@@H]3CCC4=Cc5oncc5C[C@]4(C)[C@H]3CC[C@@]21C [Danazol] | 33.6 | 83.1 |  |
| CCc1cccc(CC)c1NC(=O)CN(CC(=O)O)CC(=O)O [Etifenin] | 47.1 | 77 |  |
| CCOc1ccccc1OC(c1ccccc1)C1CNCCO1.CS(=O)(=O)O (centres unmarked) [Reboxetine mesylate] |  |  | %NTCP activity (human NTCP [1]): 110.669%; %NTCP binding (human NTCP [2]; [6]): 83.0377% |
| CN(C)CCCO[C@@H]1[C@H]2OC(C)(C)O[C@H]2O[C@@H]1[C@H](O)CO [Amiprilose hydrochloride] | 111 | 86.9 |  |
| CC1CC(OC(=O)C(O)c2ccccc2)CC(C)(C)N1C (centres unmarked) [Eucatropine hydrochloride] | 73 | 91.2 |  |
| O=C(N/N=C/c1ccc([N+](=O)[O-])o1)c1ccc(O)cc1 [Nifuroxazide] | 79.3 | 75.2 |  |
| COc1cc([C@@H]2c3cc4c(cc3[C@@H](O[C@@H]3O[C@@H]5CO[C@@H](C)O[C@H]5[C@H](O)[C@H]3O)[C@H]3COC(=O)[C@H]23)OCO4)cc(OC)c1O [Etoposide] | 70 | 47.7 |  |
| CC(=O)CC(c1ccccc1)c1c(O)c2ccccc2oc1=O (centres unmarked) [Warfarin] | 84.3 |  | remaining activity at 10 µM (human NTCP [2]; [7]): 78.1% |
| CN(C)[C@@H]1C(O)=C(C(N)=O)C(=O)[C@@]2(O)C(O)=C3C(=O)c4c(O)ccc(Cl)c4[C@@H](O)[C@H]3C[C@@H]12 [Demeclocycline hydrochloride] | 62 | 89 |  |
| CN(C)CCOC1=Cc2ccccc2Sc2ccc(Cl)cc21 [Zotepine] | 51.5 | 74.3 |  |
| CN[C@H](CC(C)C)C(=O)N[C@H]1C(=O)N[C@@H](CC(N)=O)C(=O)N[C@H]2C(=O)N[C@H]3C(=O)N[C@H](C(=O)N[C@H](C(=O)O)c4cc(O)cc(O)c4-c4cc3ccc4O)[C@H](O)c3ccc(c(Cl)c3)Oc3cc2cc(c3O[C@@H]2O[C@H](CO)[C@@H](O)[C@H](O)[C@H]2O[C@H]2C[C@](C)(N)[C@H](O)[C@H](C)O2)Oc2ccc(cc2Cl)[C@H]1O [Vancomycin hydrochloride] | 35.3 | 81.4 |  |
| CC(=O)N[C@@H](CC(=O)N[C@@H](CCC(=O)O)C(=O)O)C(=O)O [Spaglumic acid] | 103 | 100 |  |
| COc1ccccc1N1CCN(CCCCNC(=O)c2ccc3ccccc3c2)CC1.Cl.Cl [DO 897/99] |  |  | %NTCP activity (human NTCP [1]): 41.0079%; %NTCP binding (human NTCP [2]; [5]): 61.1516% |

| SMILES | remaining activity at 10 µM (human NTCP [1]) [%] | remaining activity at 10 µM (human NTCP [2]; 0.5 h, read-out: %NTCP binding) [%] | other results |
| --- | --- | --- | --- |
| CCCc1nn(C)c2c(=O)[nH]c(-c3cc(S(=O)(=O)N4CCN(C)CC4)ccc3OCC)nc12 [Sildenafil] | 134 | 84.4 |  |
| CCC[C@@H]1C[C@@H](C(=O)N[C@@H]([C@H]2O[C@H](SC)[C@H](O)[C@@H](O)[C@H]2O)[C@@H](C)O)N(C)C1 [Lincomycin hydrochloride] | 85.1 | 74.4 |  |
| COC(c1ccccc1)(c1ccccc1)[C@H](Oc1nc(C)cc(C)n1)C(=O)O [Ambrisentan] | 74.3 | 108 |  |
| Clc1ccc(C(Cn2ccnc2)OCc2c(Cl)cccc2Cl)c(Cl)c1 (centres unmarked) [Isoconazole] | 67 | 91.9 |  |
| CCN[C@H]1C[C@H](C)S(=O)(=O)c2sc(S(N)(=O)=O)cc21 [Dorzolamide hydrochloride] | 87.8 | 90.6 |  |
| CNCCCN1c2ccccc2CCc2ccccc21 [Desipramine hydrochloride] | 63.5 | 75.9 |  |
| CC(C)(C)NCC(O)c1cc(O)cc(O)c1.CC(C)(C)NCC(O)c1cc(O)cc(O)c1.O=S(=O)(O)O (centres unmarked) [Terbutaline hemisulfate] |  |  | %NTCP activity (human NTCP [1]; [4]): 161.561%; %NTCP binding (human NTCP [2]; [5]): 53.337% |
| CNCCC=C1c2ccccc2C=Cc2ccccc21 [Norcyclobenzaprine] |  |  | %NTCP activity (human NTCP [1]; Prestwick library screen, [14C]taurocholate uptake, 10 µM drug): 75.4045%; %NTCP binding (human NTCP [2]; [6]): 78.2094% |
| Cc1onc(-c2ccccc2)c1C(=O)N[C@@H]1C(=O)N2[C@@H]1SC(C)(C)[C@@H]2C(=O)[O-].[Na+] [Oxacillin sodium] |  |  | %NTCP activity (human NTCP [1]): 103.176%; %NTCP binding (human NTCP [2]; [3]): 82.1995% |
| CC(CCc1ccccc1)NC(C)C(O)c1ccc(O)cc1 (centres unmarked) [Nylidrin] | 94.3 | 88.3 |  |
| OCCOCCN1CCN(C(c2ccccc2)c2ccc(Cl)cc2)CC1 (centres unmarked) [Hydroxyzine dihydrochloride] | 75.7 | 81.6 |  |
| CC1CNc2c(cccc2S(=O)(=O)N[C@@H](CCCNC(=N)N)C(=O)N2CC[C@@H](C)C[C@@H]2C(=O)O)C1 (some centres unmarked) [Argatroban] | 116 | 80 |  |
| NS(=O)(=O)c1cc(C(=O)O)c(NCc2ccco2)cc1Cl [Furosemide] | 122 | 82.2 |  |
| CN(CCCCCCCCCCN(C)C(=O)Oc1cccc([N+](C)(C)C)c1)C(=O)Oc1cccc([N+](C)(C)C)c1 [Demecarium bromide] | 125 |  | remaining activity at 10 µM (human NTCP [2]; [8]): 86.4% |
| CCn1cc(C(=O)O)c(=O)c2cc(F)c(N3CCNCC3)nc21 [Enoxacin] | 105 | 106 |  |
| CCn1cc(C(=O)O)c(=O)c2cc(F)c(N3CCNCC3)cc21 [Norfloxacin] | 95.1 | 87 |  |
| CCC(=O)O[C@H]1CC[C@H]2[C@@H]3CCC4=CC(=O)CC[C@]4(C)[C@H]3CC[C@]12C [Testosterone propionate] | 88.3 | 57.6 |  |
| O=C(NCNC(=O)NC1C(=O)NC(=O)N1CO)NC1C(=O)NC(=O)N1CO (centres unmarked) [Imidurea] | 82.5 |  | remaining activity at 10 µM (human NTCP [2]; [8]): 101% |
| COc1ccc2c(c1)C(=O)N(CCc1ccc(S(=O)(=O)NC(=O)NC3CCCCC3)cc1)C(=O)C2(C)C [Gliquidone] | 54.2 | 114 |  |
| CN(C)CCC=C1c2ccccc2COc2ccccc21 [Doxepin hydrochloride] | 65.2 | 87.6 |  |
| C[C@H]1O[C@@H](O[C@H]2[C@@H](O)C[C@H](O[C@H]3[C@@H](O)C[C@H](O[C@H]4CC[C@@]5(C)[C@H](CC[C@@H]6[C@@H]5C[C@@H](O)[C@]5(C)[C@@H](C7=CC(=O)OC7)CC[C@]65O)C4)O[C@@H]3C)O[C@@H]2C)C[C@H](O)[C@@H]1O [Digoxin] | 37 |  | remaining activity at 10 µM (human NTCP [2]; [7]): 92.3% |
| CCC(=O)O[C@@H](O[P@](=O)(CCCCc1ccccc1)CC(=O)N1C[C@H](C2CCCCC2)C[C@H]1C(=O)O)C(C)C [Fosinopril] | 150 | 88.3 |  |
| CC(CN1c2ccccc2Sc2ccccc21)N(C)C (centres unmarked) [Promethazine hydrochloride] | 62.7 | 99.4 |  |
| Cc1ccc(O)c([C@H](CCN(C(C)C)C(C)C)c2ccccc2)c1 [Tolterodine tartrate] | 68 |  | remaining activity at 10 µM (human NTCP [2]; 0.5 h, read-out: %NTCP binding, Prestwick library screen, Myrcludex B-FITC binding, 10 µM drug): 61.3% |
